Source: the supplement of paper PMC11417369
± gives the standard deviation of the averaged measurements. The list shows a part of the results.

test system: PfAP2-G AP2 domain (GST-tagged); assay: gcPBM binding intensity (ln(normalized median fluorescence intensity)); higher = stronger DNA binding
Method in brief: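 The highest Masliner-normalised natural-log median intensity across replicate spots of either probe orientation is reported as binding intensity. GST-tagged P. falciparum DNA-binding domains expressed in E. coli were applied for 1 h to an Agilent 4 × 180k array of primer-extended double-stranded 36-bp intergenic genomic probes plus negative controls, and bound protein was detected with Alexa488 anti-GST antibody and scanned at 488 nm.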

Sequence	gcPBM binding intensity (ln)
AAATATTATGTACGCACACACATTTTTAATATATAA [CACACA_site3851]	11.4 ± 0.83
TTATTTACAACTTCAAATTATGTGTAATACTACTAT [CACACA_negctrl_site741]	10.1 ± 0.18
AATATAAAAAAAAAAAAAAAAAAAAAAAAAAAGACA [CACACA_negctrl_site983]	9.76 ± 0.23
TTGTTAATATGATAAAAGAGGAATATTCTCTTCCTA [GTGCAC_negctrl_site659]	9.48 ± 0.14
TTTTTTTCTTTTTACATACACACAAAAAAATAAAAT [CACACA_site580]	10.2 ± 0.4
AGCACATTATTCAAAAGTACAAATAGGTATTGTATA [XGTACX_site6107]	11.1 ± 0.83
TTTATATGTATTAAGTGTACACATATAATGTATTTT [XGTACX_site16]	11.5 ± 0.83
CAATTATTGTAATGCATGCACTGAATATAAAAAGAA	10.2 ± 0.17
ATATATATATATATATAATATATAATATATATATAT [CACACA_negctrl_site96]	9.8 ± 0.92
AAATTAATGTATATGTGAAGCAAGGGATGCGGCAGA [CACACA_negctrl_site406]	10.2 ± 0.12
ATATAAAATATGTATGAGGAATAAAATTAAAAAAAA [XGTACX_negctrl_site173]	9.81
TTTTTTTTGAAGAATACATGCATATTTTCTATATTC [TGCATGCA_site43]	9.91 ± 0.14
GTAAATATTTGTTGGGTGCTATCAATTATTTCAAAG	10.12 ± 0.021
ACAATATGCAAAAAGTGTACACATTCATTTATATAA [XGTACX_site1061]	11.7 ± 0.86
AATATACAAATAAAGGTGCGAGATATTTTTACTTTT	9.79 ± 0.2
ATAAAAAAAGATGAACGTACATATATTTTAAAAATC [XGTACX_site5950]	11.2 ± 0.67
TATTAAATATATATTACATGCAAAAAAAAAAAACAA [TGCATGCA_site705]	9.85 ± 0.028
ATATTATATATGTATAGTACATATTATAAGAAAAAT [XGTACX_site3457]	10.8 ± 0.64
ATCTATATCTATAATACACACATCATAAAATATGTA [CACACA_site7230]	9.93 ± 0.11
ATATATATTAATAATGCATGTGATATAAATTAATAT [TGCATGCA_site930]	9.86 ± 0.17
TGCGGAAATAAGTGCACACATAGATATATGTATTTT [CACACA_site3689]	10.4 ± 0.26
TACAATTCGTAATACACACACATATAAATAAATATT [CACACA_site7720]	10.2 ± 0.2
CGGCACATTCTATATACACACATATAAATATATACA [CACACA_site566]	9.97 ± 0.042

Sequence	gcPBM binding intensity (ln)
ATGATATGGATAAATACACACAATATAATAATGGGT [CACACA_site4905]	10.15 ± 0.035
AAAAAAAACAGACACACACACATTCAATATAAAACA [CACACA_site41]	9.95 ± 0.11
ATATCTTATATTATCACACACACACCCACAAAACAG [CACACA_site1464]	11 ± 0.78
ACGTTAATATCTACAAGTACCCACATTAACAGGAAA [XGTACX_site2616]	11.2 ± 0.74
ATTTTATATATGTGTTGTACGGTGAACATTTTGATA [XGTACX_site6538]	10.8 ± 0.58
ATATGTATAAATATAAATATATATATATATATATAT [CACACA_negctrl_site705]	10 ± 0.61
GGATCATTTTTAAAGGAACACACAAAAAAAATTATA [CACACA_site8381]	10.3 ± 0.24
TATATAAACATCGGTAGTACACACATTCATGTATTT [XGTACX_site6443]	11.5 ± 0.71
TTTTTTTTTTTTTTTTGTACATATACATATATATAT [XGTACX_site1981]	10.9 ± 0.84
AGTAGCAAATATTAAGTGCATATTATATAATGTGTA [GTGCAC_site9546]	9.87 ± 0.11
ATTAAAAAAAAAAAAAAAAAACAAAAAAAAAAAAAA [CACACA_negctrl_site1187]	9.62
ATAAATATGGCAGTACGTACGTATATTCATATTCAT [XGTACX_site8042]	11.5 ± 0.67
TGTTCAGTATGGCACACACACAACAAAATAAAAAAA [CACACA_site4368]	10.3 ± 0.42
ATACGAAATAGAAACACACATACAATAAATAAATAT [CACACA_site2017]	9.87 ± 0.057
GGTTTACCCTATAAATGTACTCATAAATTATATATA [XGTACX_site5771]	11.2 ± 0.82
ATAAGTTTTTATTTTCTGCACTGTCGAATAATAGTT	10.21 ± 0.085
GCGTGTGTACAATGAGTGCATATCTAAAGGGAAGAT	11.3 ± 0.93
GATATGTTTTATTATGTTGATGATAACAGGTAGTTT [CACACA_negctrl_site356]	9.87
GTTCTTTCAAATTATACACACCAAAAAAAAAAAAAA [CACACA_site5660]	10.1 ± 0.71
TGATCAAGTAAGAAAAGTACAAAAAAAGTAAAAAAT [XGTACX_site6529]	11.2 ± 0.73
ATGGATTATTTTTAAACATGCAGTAGTGATGAAAAA [TGCATGCA_site346]	10.1 ± 0.12
AAAAAAAACATACATACACACACATAAATATATATA [CACACA_site8864]	9.96 ± 0.22
TATATTATAATATTCACACACTAACGTAAATCATTG [CACACA_site7318]	9.94 ± 0.014

Sequence	gcPBM binding intensity (ln)
AAAACTATAAAAATTTTACACACTGTTTTTAAATAA [CACACA_site3667]	9.71 ± 0.32
AAAAAATATATATATATATATATGTAATATTTTTTT [XGTACX_negctrl_site439]	9.565 ± 0.007
TGGCAAAATAGGCACACACACATATACAGATATATT [CACACA_site4727]	10.2 ± 0.18
TCAATGAAATTAATATGTACATATTTTTATATAGTA [XGTACX_site7955]	11.3 ± 0.73
TAAATATATATATAAGTGCATTATATATATATATAA	9.76 ± 0.22
TTCTAAAATTATATAGTGCAATTATTTTATTTTTCT	9.76 ± 0.099
AAAAAAATAAAACACATACATATATGTATATATATA [GTGCAC_negctrl_site390]	9.77 ± 0.2
AAAGAAAAAAAATAATGTACATATGTATTTGAGAAA [XGTACX_site3571]	11 ± 0.47
ATTAATAATTATTATGGTACACATGTAACTACTCTC [XGTACX_site198]	11.1 ± 0.54
ATCTCTTACATATTCACACACATATAAATAACTACA [CACACA_site6816]	10.2 ± 0.2
ATATGATAGTTTATATGTACATAAATAAATACATAC [XGTACX_site2917]	11.4 ± 0.69
AAAAAAAGAAAAAAACGTACATGAAAATTTTTTGTT [XGTACX_site5135]	11.5 ± 1.1
TGTAGAAGAACCCATGCATGCAGTATGAAAAAAAAA [TGCATGCA_site907]	10.2 ± 0.23
CTATATAAAAAAATTGCACACATAAATATATACATA [CACACA_site8325]	10.2 ± 0.21
ATAAATCCCAAAACCTTGCAAGACAACGTTTGATCA [CACACA_negctrl_site1327]	9.8 ± 0.15
TACATTTAAAAAAAAACACACATATTTATATTTATA [CACACA_site7236]	9.57 ± 0.15
GGAAGGATATAACATACACACACACCCATATATATA [CACACA_site9376]	9.975 ± 0.021
CATACATACATACATACACACATATATAAATATATG [CACACA_site7028]	10.6 ± 0.3
TAAGTGATCGCATAATGTACATATTATTTATTATTT [XGTACX_site3061]	11.2 ± 0.61
ATACTTTATAAATACTAAAGTGTATTTTGTAATATA [CACACA_negctrl_site1710]	9.9 ± 0.27
ATTTGTATATATAATTGTACGCATATTCTATACGAT [XGTACX_site7367]	11.6 ± 1.1
TTATGTATTTATTTATGTACTAATTGTATGCATATT [XGTACX_site6436]	11.1 ± 0.68
TTTCCTGGTCAAGGGGTTACGGTTACGTCCTCTTGC [CACACA_negctrl_site856]	10.7 ± 0.49

Sequence	gcPBM binding intensity (ln)
CATATACATAGACACACACACACATAAATAAATATA [CACACA_site6749]	10.2 ± 0.35
ATATTATCACAAGGTGGTACACAAAAAAAAAAAAAA [XGTACX_site8224]	11.4 ± 0.95
AAAAATATGAAAGTAACTAAGTTGTTATTGATAACA [CACACA_negctrl_site1608]	9.74 ± 0.15
ACGTTAGGCTTATTTGCACACTTGTATTATAATTTT [CACACA_site1317]	10.4 ± 0.12
TATATTTAAGTACATAAATAAGCCCATTTACATACA [CACACA_negctrl_site1224]	11.3 ± 0.89
TTTGGAGAATTCATAGTGCATTTATTTATTGTTAAT	9.725 ± 0.021
TACTTTCACATTAAATGTACGTATAGTTTCATTCTT [XGTACX_site8528]	11.4 ± 0.78
ATATTAAAAATATATACACACATATATATAAATATA [CACACA_site2257]	9.655 ± 0.007
ATAAATATGGAGCACACACACATAAACATACAGATA [CACACA_site4395]	10.5 ± 0.35
ATATTATAAATATAATGTACGTTTTAATTTCATGTT [XGTACX_site3557]	11.2 ± 0.79
TATATGAGCATAAAGACACACAAATAAAACCAAACA [CACACA_site3856]	10.2 ± 0.14
AAAATAAAATGAAAACGTACATGATAAATTTTAATT [XGTACX_site4199]	11.1 ± 0.72
ATATATAATTATTGAAGTACTTGTTCATAAAATGGT [XGTACX_site5656]	11.4 ± 0.86
TAAATGAATTTTACTATACACACGTATACATTTGTA [CACACA_site1210]	10 ± 0.057
ATATTTAAATTTTGCACACGCATATGAAATTAGGAC [CACACA_site1035]	10.5 ± 0.28
AAAATAAATAAATATACACACCATATTTATATTTTT [CACACA_site7361]	9.59 ± 0.27
AGAACAATTCTGTGGTGTACCAAAAAAAATTTAATT [XGTACX_site8082]	11.3 ± 0.55
AAAATTAAAATACGTACACACCTTATCTTTTTGGCT [CACACA_site4311]	11.7 ± 1.1
TACTACACACATTCATGTACTTGATAAATTAATGAT [XGTACX_site6444]	10.9 ± 0.47
ATAACTAATATGAAATGTACCCATCAAAGTGTGCAT [XGTACX_site4463]	10.9 ± 0.61
TAATTTGTTATTTATTGTACAAACATTATATGTTAA [XGTACX_site6637]	10.7 ± 0.33
